The other results are listed elsewhere or left out. Sequences were assembled here from the parent chain. Values near 0.05 are background.
B1: TEV protease; numbered along this chain (parent)
chain: MGESLFKGPRDYNPISSSICHLTNESDGHTTSLYGIGFGPFIITNKHLFRRNNGTLVVQSLHGVFKVKDTTTLQQHLVDGRDMIIIRMPKDFPPFPQKLKFREPQREERICLVTTNFQTKSMSSMVSDTSCTFPSGDGIFWKHWIQTKDGQCGSPLVSTRDGFIVGIHSASNFTNTNNYFTSVPKNFMELLTNQEAQQWVSGWRLNADSVLWGGHKVFMVKPEEPFQPVKEATQL

Variants of: B1
Experiment: raw area under fraction-flipped curve 0-4 h after induction (AUC4h, not background-subtracted), DNA-recorder readout of cleavage of the substrate (dimensionless); higher = more cleavage of the substrate by the protease variant
Settings: temperature: 34 °C; time window: 0-4 h after rhamnose induction
Procedure: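 In vivo DNA recorder in E. coli TOP10(DE3) ΔrhaA at 34 °C. Each TEVp single-site mutant (parent TEVp 0) is paired with a single-site variant of the 7-mer TEVs (canonical ENLYFQ|S). The substrate sits between flexible linkers in a Bxb1-sfGFP-TEVs-SsrA fusion, so cleavage stabilises Bxb1 and speeds flipping of a recombination array, read by NGS. The value is the raw area under the fraction-flipped curve over 0-4 h after rhamnose induction (AUC4h), with ≥20 reads per time point. It is not background-subtracted; inactive controls average about 0.047.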
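Further: Bxb1 expression induced with 0.2% (w/v) L-rhamnose at OD600 near 0.5, cultures sampled hourly, flipped fraction per protease–substrate barcode pair counted by paired-end Illumina sequencing.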

Row | Variant | area with substrate ENLYAQS | area with substrate ENLYCQS | area with substrate ENLYDQS | area with substrate ENLYEQS | area with substrate ENLYGQS | area with substrate ENLYHQS | area with substrate ENLYIQS | area with substrate ENLYKQS | area with substrate ENLYMQS | area with substrate ENLYNQS | area with substrate ENLYPQS | area with substrate ENLYRQS | area with substrate ENLYSQS | area with substrate ENLYVQS | area with substrate ENLYWQS | area with substrate ENLYYQS | area with substrate ENLYLQS | area with substrate ENLYQQS | area with substrate ENLYTQS
1 | I36E | 0.0501 | 0.0431 | 0.0359 | 0.0506 | 0.0254 | 0.0635 | 0.0496 | 0.0522 | 0.0423 | 0.0521 | 0.0478 | 0.0385 | 0.0509 | 0.0473 | 0.0447 | 0.0337 |  |  | 
2 | I36R | 0.0517 | 0.076 | 0.0525 | 0.0528 | 0.0466 | 0.0534 | 0.0465 | 0.0463 | 0.0491 | 0.0474 | 0.0403 | 0.0602 | 0.044 | 0.059 | 0.046 | 0.0425 | 0.0365 | 0.0478 | 0.0488
3 | I36V | 0.119 |  | 0.0688 | 0.0488 | 0.0639 | 0.0541 |  | 0.059 |  | 0.0735 |  | 0.0668 | 0.0672 | 0.131 | 0.0647 | 0.0566 | 0.0555 | 0.0528 | 
4 | G37P | 0.052 |  | 0.0322 | 0.05 |  |  | 0.0536 | 0.0223 | 0.0529 | 0.0605 | 0.0522 | 0.0731 |  | 0.0629 |  |  |  | 0.0474 | 0.0349
5 | G39Q | 0.0303 |  | 0.0286 | 0.0445 | 0.0241 | 0.0457 | 0.0428 | 0.0537 | 0.0355 | 0.0411 |  | 0.0484 | 0.0473 | 0.0602 | 0.0409 | 0.0242 |  | 0.0379 | 
6 | G39W | 0.0445 |  |  | 0.043 | 0.0425 | 0.0425 |  | 0.0613 | 0.0371 | 0.0495 | 0.045 | 0.0487 |  |  | 0.0511 |  |  | 0.0574 | 0.0158
7 | F41W | 0.0756 | 0.0773 | 0.0459 | 0.0653 |  | 0.0692 |  | 0.0512 | 0.0777 | 0.0773 | 0.0562 | 0.0356 | 0.0676 |  | 0.0522 | 0.0481 | 0.0849 | 0.059 | 0.0603
8 | T44W | 0.0447 | 0.0504 | 0.0657 | 0.05 | 0.0528 | 0.0467 | 0.0426 |  | 0.0292 | 0.0439 | 0.061 | 0.0657 | 0.0386 | 0.0465 | 0.0471 | 0.0469 | 0.0497 | 0.0796 | 0.0393
9 | N45V | 0.0658 |  | 0.0595 | 0.0599 | 0.0504 | 0.0576 | 0.0587 | 0.0583 | 0.0643 | 0.0605 | 0.0662 | 0.063 | 0.0673 | 0.0643 | 0.0565 | 0.0526 | 0.0851 | 0.0601 | 0.0627
10 | H47F | 0.0357 | 0.075 | 0.0666 | 0.0578 | 0.0599 | 0.0551 | 0.058 | 0.0293 | 0.0605 | 0.0555 | 0.0757 | 0.068 | 0.065 | 0.0699 | 0.0648 |  |  | 0.0507 | 0.0647
11 | H47L | 0.0601 | 0.0537 | 0.0676 | 0.0664 | 0.0465 | 0.0572 | 0.0535 | 0.0588 | 0.0665 | 0.0582 | 0.0615 |  | 0.0662 | 0.0661 | 0.0614 | 0.0678 |  | 0.065 | 0.0469
12 | H47N | 0.0618 |  | 0.0711 | 0.0657 | 0.0851 | 0.0576 | 0.0582 | 0.0568 | 0.0614 | 0.0612 | 0.0454 | 0.0401 |  | 0.0649 | 0.0497 | 0.0593 |  | 0.052 | 0.0918
13 | H47Y | 0.0607 | 0.0593 | 0.0628 | 0.0508 | 0.0651 | 0.0554 |  | 0.0541 | 0.0427 | 0.0543 | 0.0598 |  | 0.0776 | 0.0621 | 0.0559 | 0.0415 |  | 0.0595 | 0.0649
14 | F49G | 0.064 | 0.0526 | 0.0549 | 0.0567 | 0.0486 | 0.0614 | 0.0455 | 0.0511 | 0.0502 | 0.0564 | 0.0575 |  | 0.0609 | 0.0506 | 0.0445 | 0.0561 | 0.0854 | 0.0513 | 0.0706
15 | F49P | 0.0648 |  | 0.0644 | 0.0654 | 0.0996 | 0.057 | 0.0525 | 0.0693 | 0.0592 | 0.0553 | 0.0532 | 0.0579 | 0.0612 | 0.0518 | 0.0557 | 0.0401 |  | 0.0636 | 0.0567
16 | F49R | 0.0667 | 0.0577 | 0.063 | 0.0664 | 0.0578 | 0.0424 | 0.0582 | 0.0453 | 0.0559 | 0.055 | 0.0614 | 0.0655 | 0.0593 | 0.0621 |  |  |  |  | 
17 | G54H | 0.106 | 0.0747 | 0.0601 | 0.0639 | 0.0567 | 0.0646 | 0.0529 | 0.0606 | 0.0628 | 0.0617 |  | 0.0679 | 0.0655 | 0.068 | 0.0573 | 0.0551 | 0.0527 | 0.0598 | 0.0619
18 | T55G | 0.0787 |  | 0.066 | 0.0415 |  | 0.0646 | 0.103 | 0.0559 | 0.0752 | 0.061 | 0.0676 |  | 0.0685 | 0.0899 |  | 0.0598 | 0.0917 | 0.031 | 0.0802
19 | L56D | 0.049 | 0.0409 | 0.0491 | 0.0412 | 0.0458 | 0.0374 | 0.0067 | 0.0301 | 0.0714 | 0.0449 | 0.0454 | 0.0526 |  | 0.0553 | 0.0424 |  | 0.0394 |  | 0.0487
20 | V57G | 0.0827 |  |  | 0.0534 | 0.0621 | 0.0565 |  | 0.0634 | 0.0973 | 0.0652 |  |  | 0.0689 | 0.105 |  | 0.0608 |  |  | 
21 | V57L | 0.105 | 0.0935 |  | 0.0456 |  | 0.0621 | 0.123 |  |  | 0.072 | 0.0817 | 0.0791 | 0.0758 |  | 0.0608 | 0.0674 |  |  | 
22 | V57W | 0.0728 | 0.0627 | 0.066 | 0.0653 | 0.0609 | 0.0648 | 0.105 | 0.0636 | 0.0526 | 0.0686 | 0.0767 | 0.0628 | 0.0726 |  | 0.0805 | 0.0655 |  | 0.0666 | 

Reference: the supplement of paper PMC12217912
